What was measured:
[1] = biological target: T1, heterodimeric receptor comprised of IFN-αR1 and IFN-αR2 (on cells) (UniProt P17181 28-557; P48551 27-515, limits assumed); assay: cell-based or functional assay
T1 sequence (looked up) 1: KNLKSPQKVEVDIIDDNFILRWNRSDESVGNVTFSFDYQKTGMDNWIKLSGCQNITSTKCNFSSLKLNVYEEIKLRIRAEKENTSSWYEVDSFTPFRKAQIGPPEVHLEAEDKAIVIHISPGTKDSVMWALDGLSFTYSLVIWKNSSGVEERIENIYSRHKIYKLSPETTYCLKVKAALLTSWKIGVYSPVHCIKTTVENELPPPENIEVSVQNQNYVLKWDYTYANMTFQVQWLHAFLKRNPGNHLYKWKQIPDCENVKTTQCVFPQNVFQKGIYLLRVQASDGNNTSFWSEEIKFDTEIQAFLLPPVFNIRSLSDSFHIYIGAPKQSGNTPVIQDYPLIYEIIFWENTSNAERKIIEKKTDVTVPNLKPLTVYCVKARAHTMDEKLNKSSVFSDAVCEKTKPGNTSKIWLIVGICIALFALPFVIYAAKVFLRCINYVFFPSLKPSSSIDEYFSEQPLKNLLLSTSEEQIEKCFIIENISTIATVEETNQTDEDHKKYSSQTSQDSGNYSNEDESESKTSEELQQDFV
T1 sequence (looked up) 2: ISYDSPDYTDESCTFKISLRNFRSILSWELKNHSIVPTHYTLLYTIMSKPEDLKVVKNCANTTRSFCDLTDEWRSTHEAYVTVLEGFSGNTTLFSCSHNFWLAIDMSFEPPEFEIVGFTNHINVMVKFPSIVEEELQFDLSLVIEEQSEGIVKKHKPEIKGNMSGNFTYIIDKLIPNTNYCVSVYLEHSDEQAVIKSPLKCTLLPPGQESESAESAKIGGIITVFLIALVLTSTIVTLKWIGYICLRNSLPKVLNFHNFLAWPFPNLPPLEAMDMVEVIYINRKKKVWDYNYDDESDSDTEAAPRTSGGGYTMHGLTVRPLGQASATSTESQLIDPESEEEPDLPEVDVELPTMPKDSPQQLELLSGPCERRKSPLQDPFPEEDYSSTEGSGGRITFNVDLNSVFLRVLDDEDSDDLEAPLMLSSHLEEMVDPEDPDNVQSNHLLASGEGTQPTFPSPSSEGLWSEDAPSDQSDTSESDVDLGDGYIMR

[2] = biological target: T2, IFN-αR1 (UniProt P17181 28-436, limits assumed); assay: SPR, kinetic, receptor captured on Biotin CAP chip
T2 construct: Expressed in Hi5 insect cells and captured on a Biotin CAP chip for SPR; also called IFNAR1
T2 sequence (looked up): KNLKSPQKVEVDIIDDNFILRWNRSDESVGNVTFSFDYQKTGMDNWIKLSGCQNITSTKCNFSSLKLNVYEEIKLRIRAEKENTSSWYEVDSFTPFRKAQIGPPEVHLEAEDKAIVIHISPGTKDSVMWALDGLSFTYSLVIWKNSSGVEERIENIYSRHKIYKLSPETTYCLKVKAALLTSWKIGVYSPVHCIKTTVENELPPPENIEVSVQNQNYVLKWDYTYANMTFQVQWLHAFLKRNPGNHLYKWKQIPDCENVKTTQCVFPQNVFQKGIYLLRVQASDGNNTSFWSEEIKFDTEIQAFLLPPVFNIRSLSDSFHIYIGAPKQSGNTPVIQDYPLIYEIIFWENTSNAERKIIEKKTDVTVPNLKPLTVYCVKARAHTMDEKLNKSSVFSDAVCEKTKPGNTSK
Text: (§1) Surface plasmon resonance. GE Biacore T100 was used to measure the KD by either kinetic (type I IFNs) or equilibrium (type III IFNs) methods. Approximately 100 RU of each of the receptors of were captured on a Biotin CAP-chip (GE) including a reference channel of an unrelated cytokine receptor (IL-2Rβ).

[3] = biological target: T3, IFN-αR2 (UniProt P48551 27-243, limits assumed); assay: SPR, kinetic, receptor captured on Biotin CAP chip
T3 construct: Expressed in Hi5 insect cells and captured on a Biotin CAP chip for SPR; also called IFNAR2
T3 sequence (looked up): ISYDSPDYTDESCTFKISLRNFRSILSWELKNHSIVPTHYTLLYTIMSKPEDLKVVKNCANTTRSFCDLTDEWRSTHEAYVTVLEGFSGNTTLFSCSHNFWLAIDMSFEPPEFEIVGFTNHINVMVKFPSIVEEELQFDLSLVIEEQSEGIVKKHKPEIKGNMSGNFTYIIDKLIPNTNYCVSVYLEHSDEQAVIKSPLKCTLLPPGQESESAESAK
Text: as §1

- EC50 AP (M); proliferation inhibition of WISH cells [1]: 2.2e-11 M
- Kd [2]: 4300 nM
- Kd [3]: 0.2 nM
B1: IFNW K152R (ligand)
chain: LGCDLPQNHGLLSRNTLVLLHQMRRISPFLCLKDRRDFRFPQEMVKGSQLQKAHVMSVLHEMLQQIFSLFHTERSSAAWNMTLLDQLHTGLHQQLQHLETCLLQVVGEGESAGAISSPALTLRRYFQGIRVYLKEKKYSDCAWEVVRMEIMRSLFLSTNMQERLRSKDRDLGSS
notes: also called IFN-ω (Lys152Arg)
